Experimental data: the supplement of paper PMC3334620
The full ranking holds about 33,000 sequences; the median of “E-score (-0.5 to 0.5)” is about -0.032, and the highest 2% start at about 0.36. The list shows a part of the results.

Target: T1, Sko1 (UniProt Q02100)
T1 sequence: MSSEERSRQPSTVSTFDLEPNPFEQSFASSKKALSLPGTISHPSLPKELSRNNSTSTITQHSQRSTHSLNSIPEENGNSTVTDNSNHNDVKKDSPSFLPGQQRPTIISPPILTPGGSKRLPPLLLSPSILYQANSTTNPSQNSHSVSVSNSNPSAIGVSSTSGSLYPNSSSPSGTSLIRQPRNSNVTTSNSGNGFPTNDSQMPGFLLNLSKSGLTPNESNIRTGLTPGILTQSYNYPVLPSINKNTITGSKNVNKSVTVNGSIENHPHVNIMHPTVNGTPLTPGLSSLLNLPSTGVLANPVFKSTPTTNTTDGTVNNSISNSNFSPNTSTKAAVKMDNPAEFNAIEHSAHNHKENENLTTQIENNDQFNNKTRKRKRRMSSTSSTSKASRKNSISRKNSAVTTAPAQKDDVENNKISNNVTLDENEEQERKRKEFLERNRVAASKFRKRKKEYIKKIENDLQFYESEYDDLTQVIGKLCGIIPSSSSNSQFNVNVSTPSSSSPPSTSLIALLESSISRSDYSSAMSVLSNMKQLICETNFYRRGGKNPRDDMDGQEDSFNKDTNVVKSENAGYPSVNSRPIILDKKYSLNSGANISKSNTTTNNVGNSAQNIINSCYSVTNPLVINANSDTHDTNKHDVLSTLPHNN
Assay: PBM E-score (8-mer binding enrichment) (E-score (-0.5 to 0.5)); higher = stronger / more preferred TF binding; most listed sequences are background and not binding sites
Conditions: protein concentration: 200 nM; construct: GST-full length
How it was run: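 Bound GST-tagged yeast transcription factors, applied at about 100-200 nM to double-stranded universal all-10-mer Agilent arrays, were detected with fluorescent anti-GST. Scans were normalised with masliner. A modified Wilcoxon-Mann-Whitney statistic, the E-score, was assigned to each ungapped eight-base word pooled with its reverse complement by the Universal PBM Analysis Suite.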

Sequence	PBM E-score
AGAGTAAT	0.13
TCATTGCA	0.244
GAACTCGC	0.0362
TCTCAACA	0.136
CCCGCGCC	-0.318
AGAACGTA	0.366
AATTAGCG	0.047
ACTTCCAG	-0.179
AGTAGCCG	-0.131
AGGTCCGA	-0.117
CTAGCTCC	-0.101
GAAGAGGA	-0.331
ACTCTTCT	-0.177
AATGTCTC	-0.0826
ATTCTAAG	0.16
CCCTCCCC	-0.12
AACAATGA	0.2
CCACCCCG	-0.129
CCTCAAAC	-0.145
AGACGACA	0.102
ATATCTGA	0.127
ACCATAAG	-0.0222
GAGATTGA	0.0649
CATTCCCA	-0.0105
ATGCCGCA	0.0038

Sequence	PBM E-score
ACCTGGAA	0.126
TTCACAAA	0.0412
CAGGGATA	-0.109
CAGACGTA	0.387
GACCAAGA	-0.00138
GCTCATCC	-0.123
CCCAGCTA	-0.155
AAACCGCC	-0.159
ACGCCCCC	-0.312
CGCACGTA	0.408
TTACCTAA	0.281
GGGCGTAC	-0.0799
GAATATTA	0.146
CCAATGCG	-0.0652
ACCATTTA	0.154
CTGCGGTA	-0.142
GTTGAAGA	0.127
CCACAAGG	-0.239
GCGGATCC	-0.369
AATTCATG	0.115
CCACTAGC	-0.119
CACCGATC	-0.0568
CAATGCCC	-0.216
AGGTGAAA	0.113
ACTCACAA	0.0209

Sequence	PBM E-score
GAACGCGC	-0.0118
AGAGTGGA	-0.0853
GCGACGAC	-0.08
GCCGTTCA	-0.213
GAGACCTA	-0.097
CCATAGAG	-0.36
ACCACAAT	-0.0211
ATGCCGAC	-0.0808
GCCGCCGC	-0.285
ATGGGGAC	-0.305
ACCTCTCA	-0.0435
CTACTAAC	0.0153
CAAAGACG	0.0557
AACGCCAC	0.0477
CATGATTA	0.3
CTCATCGA	-0.0117
AAAGCAGC	0.0132
ACTACCCG	-0.145
CAAGACAG	-0.0897
AGACGGTG	-0.175
CAGCAATG	-0.129
CTACCTTC	0.00192
ACGAGTTC	0.194
CCCAGCGA	-0.181
ACACAGAT	0.045

Sequence	PBM E-score
GGCCAACA	-0.29
CAATCGAC	0.0481
ACGAGAGT	0.191
AGGTTTCC	-0.198
GTTATTTA	0.189
AAAGCTGA	-0.0979
AGCTTAGC	-0.0914
ATGAATAG	0.00464
AGAGGAAC	-0.173
CTCCTCCA	0.0129
GTGAAAAA	0.0887
CCCTTAGG	-0.18
AGCGTTAG	0.0418
ATGAACAG	-0.0467
ACTGACAG	0.0433
CAGGCGTC	-0.0515
CCATAATC	0.0831
AGGCTGAC	-0.0184
ATGCCGTG	-0.111
AAGCTAGC	-0.209
CAGAGAAG	-0.149
GGAATAGA	0.00637
AAGGGTAT	-0.0051
GAAGTTGA	0.00329
CGACCGAA	-0.144

Sequence	PBM E-score
AGATCTAA	0.0873
AGAGTGCG	0.0255
GCCCGTAA	0.172
CGCCACTA	0.105
CGGAGACG	0.0676
CGAACTGA	0.0253
TCCACAGA	-0.0414
GAACTCCA	-0.0454
CGCCTAAG	-0.226
ATCGTGCG	0.24
CCAAGTCG	-0.166
GCAGATAA	-0.0499
AATTATGA	0.312
AGCTTACG	0.316
CCCACCTC	-0.304
GAGACAGC	-0.145
AATGCTGA	0.115
GCCGCTGA	-0.0871
GTATAAGA	0.18
GACCCTCA	-0.25
ATATACGC	0.301
CGAAGTCC	-0.207
TGCCCGCA	-0.145
ATTCTCTG	-0.0592
AGTTATCA	0.146

Sequence	PBM E-score
CGCCTCCG	-0.23
GAGCTATA	-0.00888
AGAACTAT	0.17
TGTATCAA	0.168
ACCCGAGC	-0.224
GCCAGACA	-0.133
AGTGCTGG	-0.111
CTACTGAC	-0.0209
ATACCGGG	-0.146
GGTGTCAC	-0.00601
ACAAACTG	-0.235
AGGCGAGG	-0.402
CGGGAAGA	0.0439
ATGTTATC	0.108
AAAAACAG	-0.0289
AGGCAAAT	-0.0124
AGCAATAA	-0.069
GACTTGCA	0.104
ATGCATGC	0.101
TCGACCCA	-0.0167
AACGGAAC	0.07
AGATCGCT	-0.0654
CTCGCTAA	0.0184
ATTCAAAT	0.195
ATTACGGG	0.206

Sequence	PBM E-score
AGTTGTAT	0.136
TAAGATCA	0.0522
GCAAGCCA	-0.0958
GAATATGC	-0.0733
GAGCGTTA	-0.0268
ATTGGCAC	-0.122
GATACGGA	-0.0181
CTACGGAC	-0.147
AGACACCA	-0.0103
CCTGTTGA	-0.0898
AGAGTACA	-0.0976
ACCCCGCA	-0.14
GTACTGAC	0.177
GCGATTCC	-0.285
ACATACCT	0.138
CTTACAAG	-0.148
AAATTTGA	0.218
CCCCGTTA	-0.139
AGGAGGTC	-0.24
CAGCCCAG	-0.283
AACGCTCT	-0.148
AACTACGG	-0.0536
